For data set [1], the system named is HeLa Kyoto. The data set is described as follows: solubility change mitosis vs G1/S (difference of NP-40 vs SDS log2 ratios) (log2 ratio difference); higher = more soluble in mitosis.
The subject of data set [2] is HeLa Kyoto. In words: thermal stability score vs G1/S (z-score of summed log2 fold changes over temperatures); higher = more thermally stable than in G1/S.
Data set [3] relates to HeLa Kyoto. In words: melting temperature (median over replicates), in situ; higher = more thermally stable.
In data set [4] the test system is HeLa Kyoto. In words: solubility in G1/S (NP-40 vs SDS abundance) (log2 ratio); higher = more soluble. The note with it: cell cycle stage: G1/S.
Setting [5] is: cell cycle stage: early G1 (4.5 h after nocodazole release).
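For melting temperature (median over replicates), in situ in this document: HeLa Kyoto cells synchronized by double thymidine or nocodazole block, proteins quantified by TMT10plex mass spectrometry, three independent biological replicates.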
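For solubility change mitosis vs G1/S (difference of NP-40 vs SDS log2 ratios) in this document: synchronized HeLa Kyoto cells (double thymidine block for G1/S, nocodazole release for mitosis), protein amounts in NP-40 versus SDS lysates quantified by mass spectrometry, three biological replicates.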
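For solubility in G1/S (NP-40 vs SDS abundance) in this document: HeLa Kyoto cells arrested at G1/S by double thymidine block, proteins quantified by TMT10plex mass spectrometry in mild NP-40 versus SDS extracts, three biological replicates.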
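For thermal stability score vs G1/S (z-score of summed log2 fold changes over temperatures) in this document: synchronized HeLa Kyoto cells, proteins quantified by TMT10plex mass spectrometry, three biological replicates, mitosis taken 0.5 h after nocodazole release, G1/S directly after double thymidine block.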

As to PSMC5 (sequence left out), the “solubility change mitosis (log2)” value in the data set with HeLa Kyoto [1] was -0.157. In addition, the figures for the thermal stability score with HeLa Kyoto [2] (setting [5]) and in the data set with HeLa Kyoto [2] (cell cycle stage: mitosis) were 1.01 and 0.335, respectively. Besides, the melting temperature was 53.6 °C in the data set with HeLa Kyoto [3] (cell cycle stage: G1/S) and 53.4 °C with HeLa Kyoto [3] (cell cycle stage: mitosis). The “solubility in G1/S (log2)” value in the data set with HeLa Kyoto [4] worked out at 0.247.

On to NDUFB5 (sequence left out), for which the “solubility change mitosis (log2)” value in the data set on HeLa Kyoto [1] was -0.165. Further, the thermal stability score in the data set with HeLa Kyoto [2] (setting [5]) is 0.2; with HeLa Kyoto [2] (cell cycle stage: mitosis), -0.782. In addition, the melting temperature in the data set with HeLa Kyoto [3] (cell cycle stage: G1/S) came to 51.9 °C; in the data set on HeLa Kyoto [3] (cell cycle stage: mitosis) it was 54.6 °C. Also, the “solubility in G1/S (log2)” value in the data set on HeLa Kyoto [4] was found to be 0.0453.

On to “MGKDYYQTLGLARGASDEEIKRAYRRQALRYHPDKNKEPGAEEKFKEIAEAYDVLSDPRKREIFDRYGEEGLKGSGPSGGSGGGANGTSFSYTFHGDPHAMFAEFFGGRNPFDTFFGQRNGEEGMDIDDPFSGFPMGMGGFTNVNFGRSRSAQEPARKKQ[skipping about 150 residues]PERIPQTSRTVLEQVLPI [DNAJB1]”, for which the “solubility change mitosis (log2)” value with HeLa Kyoto [1] was 0.00135. Further, the results for the thermal stability score in the data set on HeLa Kyoto [2] (setting [5]) and in the data set on HeLa Kyoto [2] (cell cycle stage: mitosis) were 0.967 and 0.315, respectively. Besides, the melting temperature with HeLa Kyoto [3] (cell cycle stage: G1/S) was 48.7 °C; with HeLa Kyoto [3] (cell cycle stage: mitosis), 49.3 °C. Also, in the data set with HeLa Kyoto [4], the “solubility in G1/S (log2)” value was 0.361.

For the substance LARP4 (sequence left out), the “solubility change mitosis (log2)” value in the data set with HeLa Kyoto [1] stood at 0.656. Also, the thermal stability score in the data set on HeLa Kyoto [2] (setting [5]) is -0.987; in the data set with HeLa Kyoto [2] (cell cycle stage: mitosis), -1.66. Also, the melting temperature turned out to be 49.6 °C with HeLa Kyoto [3] (cell cycle stage: G1/S) and 49.9 °C with HeLa Kyoto [3] (cell cycle stage: mitosis). In addition, the “solubility in G1/S (log2)” value in the data set with HeLa Kyoto [4] was -1.1.

The values above are taken from the supplement of paper PMC5998384.
